According to the supplement of paper PMC9151546:
Most values come without repeats; read them as rough.

Assays:
CHO-K1 [1] = experiment: hypodiploid nuclei frequency (% of nucleated events); higher = more hypodiploid events (aneugenic)
Procedure: (§1)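 Flow-cytometric in vitro micronucleus assay (Litron MicroFlow) in CHO-K1 cells in 96-well plates, 19 concentrations (4.5-200 µM, n=1 per concentration). Without S9, cells were exposed for 24 h and sampled at 48 h. With Aroclor 1254-induced rat liver S9, cells were exposed for 3-4 h and sampled at 27-28 h. Read-outs are %MN and %hypodiploid nuclei relative to nucleated events, and relative survival as the nuclei-to-bead ratio versus the 1% DMSO vehicle control (x100).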

CHO-K1 [2] = experiment: micronucleus frequency (% of nucleated events); higher = more micronuclei (genotoxic)
CHO-K1 [3] = experiment: relative survival (nuclei to bead ratio vs DMSO control) (% of vehicle control); higher = more surviving cells
Procedure: as §1

[4] = concentration: 4.5 (µM), S9 metabolic activation: with S9, exposure time: 3-4 hours
[5] = concentration: 4.5 (µM), S9 metabolic activation: without S9, exposure time: 24 hours
[6] = concentration: 5.63 (µM), S9 metabolic activation: with S9, exposure time: 3-4 hours
[7] = concentration: 5.63 (µM), S9 metabolic activation: without S9, exposure time: 24 hours
[8] = concentration: 7.04 (µM), S9 metabolic activation: with S9, exposure time: 3-4 hours
[9] = concentration: 7.04 (µM), S9 metabolic activation: without S9, exposure time: 24 hours
[10] = concentration: 8.8 (µM), S9 metabolic activation: with S9, exposure time: 3-4 hours
[11] = concentration: 8.8 (µM), S9 metabolic activation: without S9, exposure time: 24 hours
[12] = concentration: 11 (µM), S9 metabolic activation: with S9, exposure time: 3-4 hours
[13] = concentration: 11 (µM), S9 metabolic activation: without S9, exposure time: 24 hours
[14] = concentration: 13.7 (µM), S9 metabolic activation: with S9, exposure time: 3-4 hours
[15] = concentration: 13.7 (µM), S9 metabolic activation: without S9, exposure time: 24 hours
[16] = concentration: 17.2 (µM), S9 metabolic activation: with S9, exposure time: 3-4 hours
[17] = concentration: 17.2 (µM), S9 metabolic activation: without S9, exposure time: 24 hours
[18] = concentration: 21.5 (µM), S9 metabolic activation: with S9, exposure time: 3-4 hours
[19] = concentration: 21.5 (µM), S9 metabolic activation: without S9, exposure time: 24 hours
[20] = concentration: 26.8 (µM), S9 metabolic activation: with S9, exposure time: 3-4 hours
[21] = concentration: 26.8 (µM), S9 metabolic activation: without S9, exposure time: 24 hours
[22] = concentration: 33.6 (µM), S9 metabolic activation: with S9, exposure time: 3-4 hours
[23] = concentration: 33.6 (µM), S9 metabolic activation: without S9, exposure time: 24 hours
[24] = concentration: 41.9 (µM), S9 metabolic activation: with S9, exposure time: 3-4 hours
[25] = concentration: 41.9 (µM), S9 metabolic activation: without S9, exposure time: 24 hours
[26] = concentration: 52.4 (µM), S9 metabolic activation: with S9, exposure time: 3-4 hours
[27] = concentration: 52.4 (µM), S9 metabolic activation: without S9, exposure time: 24 hours
[28] = concentration: 65.5 (µM), S9 metabolic activation: with S9, exposure time: 3-4 hours
[29] = concentration: 65.5 (µM), S9 metabolic activation: without S9, exposure time: 24 hours
[30] = concentration: 81.9 (µM), S9 metabolic activation: with S9, exposure time: 3-4 hours
[31] = concentration: 81.9 (µM), S9 metabolic activation: without S9, exposure time: 24 hours
[32] = concentration: 102 (µM), S9 metabolic activation: with S9, exposure time: 3-4 hours
[33] = concentration: 102 (µM), S9 metabolic activation: without S9, exposure time: 24 hours
[34] = concentration: 128 (µM), S9 metabolic activation: with S9, exposure time: 3-4 hours
[35] = concentration: 128 (µM), S9 metabolic activation: without S9, exposure time: 24 hours
[36] = concentration: 160 (µM), S9 metabolic activation: with S9, exposure time: 3-4 hours
[37] = concentration: 160 (µM), S9 metabolic activation: without S9, exposure time: 24 hours
[38] = concentration: 200 (µM), S9 metabolic activation: with S9, exposure time: 3-4 hours
[39] = concentration: 200 (µM), S9 metabolic activation: without S9, exposure time: 24 hours
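Throughout, for hypodiploid nuclei frequency (% of nucleated events): hypodiploid nuclei gated on a flow cytometer with 488 nm excitation after SYTOX Green staining, cultures at 37 °C, positive controls vinblastine without S9 and cyclophosphamide with S9.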
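Throughout, for micronucleus frequency (% of nucleated events): cells lysed with nuclei stained by SYTOX Green, then micronucleus-gated events counted against nucleated events by flow cytometry with 488 nm excitation.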
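Throughout, for relative survival (nuclei to bead ratio vs DMSO control): Lysed-cell nuclei stained with SYTOX Green and counted against counting beads by flow cytometry at 488 nm excitation, with vinblastine (no S9) and cyclophosphamide (plus S9) as positive controls.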

CCCOC(=O)c1ccc(O)cc1 [Propylparaben]
hypodiploid nuclei frequency (CHO-K1 [1]; [4]): 0.38%
hypodiploid nuclei frequency (CHO-K1 [1]; [5]): 0.5%
hypodiploid nuclei frequency (CHO-K1 [1]; [6]): 0.3%
hypodiploid nuclei frequency (CHO-K1 [1]; [7]): 0.42%
hypodiploid nuclei frequency (CHO-K1 [1]; [8]): 0.36%
hypodiploid nuclei frequency (CHO-K1 [1]; [9]): 0.52%
hypodiploid nuclei frequency (CHO-K1 [1]; [10]): 0.32%
hypodiploid nuclei frequency (CHO-K1 [1]; [11]): 0.52%
hypodiploid nuclei frequency (CHO-K1 [1]; [12]): 0.3%
hypodiploid nuclei frequency (CHO-K1 [1]; [13]): 0.68%
hypodiploid nuclei frequency (CHO-K1 [1]; [14]): 0.22%
hypodiploid nuclei frequency (CHO-K1 [1]; [15]): 0.38%
hypodiploid nuclei frequency (CHO-K1 [1]; [16]): 0.18%
hypodiploid nuclei frequency (CHO-K1 [1]; [17]): 0.4%
hypodiploid nuclei frequency (CHO-K1 [1]; [18]): 0.16%
hypodiploid nuclei frequency (CHO-K1 [1]; [19]): 0.56%
hypodiploid nuclei frequency (CHO-K1 [1]; [20]): 0.36%
hypodiploid nuclei frequency (CHO-K1 [1]; [21]): 0.62%
hypodiploid nuclei frequency (CHO-K1 [1]; [22]): 0.4%
hypodiploid nuclei frequency (CHO-K1 [1]; [23]): 0.74%
hypodiploid nuclei frequency (CHO-K1 [1]; [24]): 0.1%
hypodiploid nuclei frequency (CHO-K1 [1]; [25]): 0.66%
hypodiploid nuclei frequency (CHO-K1 [1]; [26]): 0.28%
hypodiploid nuclei frequency (CHO-K1 [1]; [27]): 0.44%
hypodiploid nuclei frequency (CHO-K1 [1]; [28]): 0.32%
hypodiploid nuclei frequency (CHO-K1 [1]; [29]): 0.58%
hypodiploid nuclei frequency (CHO-K1 [1]; [30]): 0.42%
hypodiploid nuclei frequency (CHO-K1 [1]; [31]): 0.68%
hypodiploid nuclei frequency (CHO-K1 [1]; [32]): 0.3%
hypodiploid nuclei frequency (CHO-K1 [1]; [33]): 0.86%
hypodiploid nuclei frequency (CHO-K1 [1]; [34]): 0.18%
hypodiploid nuclei frequency (CHO-K1 [1]; [35]): 0.82%
hypodiploid nuclei frequency (CHO-K1 [1]; [36]): 0.22%
hypodiploid nuclei frequency (CHO-K1 [1]; [37]): 0.98%
hypodiploid nuclei frequency (CHO-K1 [1]; [38]): 0.38%
hypodiploid nuclei frequency (CHO-K1 [1]; [39]): 1.04%
micronucleus frequency (CHO-K1 [2]; [4]): 1.92%
micronucleus frequency (CHO-K1 [2]; [5]): 2.02%
micronucleus frequency (CHO-K1 [2]; [6]): 2.38%
micronucleus frequency (CHO-K1 [2]; [7]): 1.94%
micronucleus frequency (CHO-K1 [2]; [8]): 2.94%
micronucleus frequency (CHO-K1 [2]; [9]): 1.96%
micronucleus frequency (CHO-K1 [2]; [10]): 2.22%
micronucleus frequency (CHO-K1 [2]; [11]): 2.06%
micronucleus frequency (CHO-K1 [2]; [12]): 2.16%
micronucleus frequency (CHO-K1 [2]; [13]): 2.02%
micronucleus frequency (CHO-K1 [2]; [14]): 2.18%
micronucleus frequency (CHO-K1 [2]; [15]): 1.88%
micronucleus frequency (CHO-K1 [2]; [16]): 3.16%
micronucleus frequency (CHO-K1 [2]; [17]): 1.68%
micronucleus frequency (CHO-K1 [2]; [18]): 1.62%
micronucleus frequency (CHO-K1 [2]; [19]): 2.86%
micronucleus frequency (CHO-K1 [2]; [20]): 1.68%
micronucleus frequency (CHO-K1 [2]; [21]): 1.32%
micronucleus frequency (CHO-K1 [2]; [22]): 1.06%
micronucleus frequency (CHO-K1 [2]; [23]): 1.36%
micronucleus frequency (CHO-K1 [2]; [24]): 1.58%
micronucleus frequency (CHO-K1 [2]; [25]): 1.56%
micronucleus frequency (CHO-K1 [2]; [26]): 1.8%
micronucleus frequency (CHO-K1 [2]; [27]): 1.92%
micronucleus frequency (CHO-K1 [2]; [28]): 1.94%
micronucleus frequency (CHO-K1 [2]; [29]): 1.52%
micronucleus frequency (CHO-K1 [2]; [30]): 2.12%
micronucleus frequency (CHO-K1 [2]; [31]): 1.56%
micronucleus frequency (CHO-K1 [2]; [32]): 1.34%
micronucleus frequency (CHO-K1 [2]; [33]): 1.84%
micronucleus frequency (CHO-K1 [2]; [34]): 1.4%
micronucleus frequency (CHO-K1 [2]; [35]): 1.86%
micronucleus frequency (CHO-K1 [2]; [36]): 1.14%
micronucleus frequency (CHO-K1 [2]; [37]): 1.74%
micronucleus frequency (CHO-K1 [2]; [38]): 1.8%
micronucleus frequency (CHO-K1 [2]; [39]): 2.76%
relative survival (CHO-K1 [3]; [4]): 111
relative survival (CHO-K1 [3]; [5]): 138
relative survival (CHO-K1 [3]; [6]): 120
relative survival (CHO-K1 [3]; [7]): 128
relative survival (CHO-K1 [3]; [8]): 101
relative survival (CHO-K1 [3]; [9]): 120
relative survival (CHO-K1 [3]; [10]): 116
relative survival (CHO-K1 [3]; [11]): 123
relative survival (CHO-K1 [3]; [12]): 119
relative survival (CHO-K1 [3]; [13]): 114
relative survival (CHO-K1 [3]; [14]): 119
relative survival (CHO-K1 [3]; [15]): 109
relative survival (CHO-K1 [3]; [16]): 120
relative survival (CHO-K1 [3]; [17]): 105
relative survival (CHO-K1 [3]; [18]): 114
relative survival (CHO-K1 [3]; [19]): 95.5
relative survival (CHO-K1 [3]; [20]): 97.3
relative survival (CHO-K1 [3]; [21]): 88.2
relative survival (CHO-K1 [3]; [22]): 85.6
relative survival (CHO-K1 [3]; [23]): 118
relative survival (CHO-K1 [3]; [24]): 104
relative survival (CHO-K1 [3]; [25]): 96.4
relative survival (CHO-K1 [3]; [26]): 104
relative survival (CHO-K1 [3]; [27]): 79
relative survival (CHO-K1 [3]; [28]): 103
relative survival (CHO-K1 [3]; [29]): 80.3
relative survival (CHO-K1 [3]; [30]): 115
relative survival (CHO-K1 [3]; [31]): 76.6
relative survival (CHO-K1 [3]; [32]): 123
relative survival (CHO-K1 [3]; [33]): 92.3
relative survival (CHO-K1 [3]; [34]): 110
relative survival (CHO-K1 [3]; [35]): 83
relative survival (CHO-K1 [3]; [36]): 105
relative survival (CHO-K1 [3]; [37]): 67.4
relative survival (CHO-K1 [3]; [38]): 158
relative survival (CHO-K1 [3]; [39]): 66.1
